To fix the notation:
B1: FGFR2alphaIIIc([…]) Fc5, full-length FGFR2-Fc (A2556F) (Fc fusion)
chain: not shown
notes: also called FGFR2 A2556F; construct #1945
B2: FGFR2alphaIIIc([…])(P253R) Fc5, full-length FGFR2-Fc P253R (A2558F) (Fc fusion)
chain: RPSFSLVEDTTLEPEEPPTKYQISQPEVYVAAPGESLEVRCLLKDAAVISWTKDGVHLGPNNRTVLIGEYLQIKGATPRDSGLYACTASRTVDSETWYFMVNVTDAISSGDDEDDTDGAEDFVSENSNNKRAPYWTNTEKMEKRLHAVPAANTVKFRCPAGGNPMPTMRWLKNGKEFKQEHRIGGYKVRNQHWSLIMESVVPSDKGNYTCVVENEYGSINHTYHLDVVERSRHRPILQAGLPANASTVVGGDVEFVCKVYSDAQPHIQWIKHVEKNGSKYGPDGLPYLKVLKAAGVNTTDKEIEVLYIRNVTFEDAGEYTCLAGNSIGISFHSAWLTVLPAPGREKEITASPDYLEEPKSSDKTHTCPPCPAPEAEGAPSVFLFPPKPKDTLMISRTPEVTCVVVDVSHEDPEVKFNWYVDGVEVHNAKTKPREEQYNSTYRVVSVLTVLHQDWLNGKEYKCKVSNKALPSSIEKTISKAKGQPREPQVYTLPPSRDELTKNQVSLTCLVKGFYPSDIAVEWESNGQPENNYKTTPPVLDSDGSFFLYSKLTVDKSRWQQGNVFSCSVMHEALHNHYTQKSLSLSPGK
notes: also called FGFR2 A2558F; construct #1947
B3: FGFR2alphaIIIc([…])(S252W) Fc5, full-length FGFR2-Fc S252W (A2557F) (Fc fusion)
chain: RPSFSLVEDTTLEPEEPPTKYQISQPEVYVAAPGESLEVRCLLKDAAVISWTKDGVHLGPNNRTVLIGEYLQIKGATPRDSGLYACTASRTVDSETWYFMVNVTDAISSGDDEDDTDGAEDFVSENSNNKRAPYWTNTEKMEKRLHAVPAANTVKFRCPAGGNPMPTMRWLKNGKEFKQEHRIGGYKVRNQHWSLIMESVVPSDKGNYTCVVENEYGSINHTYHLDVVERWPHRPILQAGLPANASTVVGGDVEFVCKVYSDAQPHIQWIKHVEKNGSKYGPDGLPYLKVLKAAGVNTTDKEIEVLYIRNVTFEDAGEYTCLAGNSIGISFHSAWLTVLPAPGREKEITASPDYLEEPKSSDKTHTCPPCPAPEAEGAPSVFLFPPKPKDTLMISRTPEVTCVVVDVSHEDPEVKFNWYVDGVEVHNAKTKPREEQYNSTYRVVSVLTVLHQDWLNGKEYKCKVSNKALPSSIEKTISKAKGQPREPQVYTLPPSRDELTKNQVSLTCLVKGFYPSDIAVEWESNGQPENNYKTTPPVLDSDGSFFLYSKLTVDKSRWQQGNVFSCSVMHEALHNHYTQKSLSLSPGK
notes: also called FGFR2 A2557F; construct #1946

This experiment deals with T1, recombinant human FGF-8b (human, UniProt P55075-3 23-215).
T1 sequence (looked up): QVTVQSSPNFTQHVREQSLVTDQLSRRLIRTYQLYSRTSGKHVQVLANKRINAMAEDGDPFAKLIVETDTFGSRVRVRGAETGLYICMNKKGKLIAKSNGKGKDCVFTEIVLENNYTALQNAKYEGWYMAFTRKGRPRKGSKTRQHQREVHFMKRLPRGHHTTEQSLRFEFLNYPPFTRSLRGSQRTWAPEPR
Briefly: ELISA, FGF coated, FGFR-Fc titrated with heparin. On the procedure: To determine the binding capability of FGFR-Fc to their respective ligands, an ELISA was run. Recombinant human FGF-8b or FGF-17 (R&D Systems) was plated at 100 nM on a Nunc Maxisorp 96-well plate for 1 h at room temperature with shaking. The plates were blocked with BLOTTO (Thermo Fisher Scientific, Rockford, Ill.) for 1 h at room temperature, then washed 5 times with ELISA C buffer (137 mM NaCl, 2.7 mM KCl, 7.2 mM Na₂HPO₄, 1.5 mM KH₂PO₄, 0.05% (v/w) polysorbate 20, pH 7.2). FGFR-Fcs were diluted to 100 nM with PBS/0.1×BLOTTO/10 ug/ml porcine heparin (Sigma, St. Louis, Mo.) and then 1:2 serial dilutions were made, ending at 0.10 nM. 100 μL of FGFR-Fcs were plated and incubated at 4° C. overnight. The following day, the plates were washed 5 times with ELISA C and then incubated with 2.5 μg/mL horseradish peroxidase-conjugated anti-human Fc antibody (Jackson ImmunoResearch Laboratories, West Grove, Pa.) for 1 h at room temperature with shaking. After 5 washes with ELISA C, 100 μL of OPD in citrate buffer (5 mg of o-phenylenediamine in 63 mM sodium citrate, 37 mM citric acid, pH 5.0, 0.03% H₂O₂) was added for detection. After 2-5 minutes, the reaction was stopped with 1 N H₂SO₄. The plates were read at 490 nm using SoftMaxPro software.
A general note: In an ELISA, binding on a coated surface is turned into a signal by an enzyme label.
Turning to B1, the binding result is on record as “no binding (tested: 100 nM (highest concentration tested))”.

For the molecule B2, the binding result was “no binding (tested: 100 nM (highest concentration tested))”.

As to B3, the binding result is on record as “no binding (tested: 100 nM (highest concentration tested))”.

(Values after patent publication US20120134993A1 (ZymoGenetics, published 2012).)
